Source: PubChem BioAssay AID652104 (National Center for Advancing Translational Sciences (NCATS), 2013)
The whole screen tested about 410,000 compounds, of which about 7,200 (1.8%) were called active. The inconclusive results got no clear call from the source; some entries with a clear call stand among them for comparison. Calls come from the whole dose curve; as a rule, active = well fitted activation curve with a large enough effect; inconclusive = small, poorly fitted or top-dose-only effect, or another doubt; inactive = no such curve, though single readings can be large or run the other way. Potencies beside an inconclusive call are fits to weak or partial responses and may not hold up.

Test: qHTS of TDP-43 Inhibitors; note: nearly all actives have a fitted effect of over 50% in size; for growth rescue (activation): % of control where 0% means no effect
Conditions: TDP-43 expressing yeast growth rescue, BacTiter-Glo, 24 h; growth rescue (activation): at 46.1 µM (top of the series) unless noted
Summary of the method: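 Cell-based yeast growth screen: TDP-43 expression induced in galactose, inoculum OD600=0.02 after raffinose pregrowth to mid-log. Read-out BacTiter-Glo luminescence at 24 hr, 30 deg C; inhibition of toxicity seen as signal increase.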
Potency is the fitted concentration of half-maximal effect; tags give direction and shape of the fitted curve.

Potency, inconclusive:
COc1ccc(N2CCN(C(=O)CCc3c[nH]c4ccccc34)CC2)cc1 7.94 µM [activator, partial curve]
CCOCCOC(=O)COC(=O)c1ccccc1NC(=O)c1ccccc1 3.55 µM [activator, partial curve]
CCOC(=O)Cc1csc(NC(=O)CSc2ncnc3c2cnn3-c2ccccc2Cl)n1 17.8 µM [activator, single point]
COCCOc1cc(N)c(Cl)cc1Cl 10 µM [activator, partial curve]
O=CNc1cc(-c2ccccc2)cn2c(-c3ccc(F)c(Cl)c3)cnc12 35.5 µM [activator, single point]
COc1ccc(S(=O)(=O)N2CCCC2C(=O)Nc2ccc(C)cc2)cc1 (configuration not stated) 31.6 µM [activator, partial curve]
CC(C)(C)CC(=O)NC(=S)NCCc1ccccc1 11.2 µM [activator, single point]
CCOC(=O)c1cnc(SCc2nc(N)nc(Nc3ccc(F)cc3)n2)nc1N 10 µM [activator, partial curve]
Cc1ccc(OCC(=O)N2CCCC(CO)(CCOc3ccccc3)C2)cc1 (configuration not stated) 7.08 µM [activator, partial curve]
C[C@H]1CN([C@@H](C)CO)S(=O)(=O)c2ccc(-c3ccc(C#N)cc3)cc2O[C@H]1CN(C)C(=O)CN(C)C 0.562 µM [activator, full curve]
Cc1ccc(NC(=O)C2OCCc3ccccc32)cc1Cl (configuration not stated) 11.2 µM [activator, partial curve]
CCOC(=O)c1c(-c2ccccc2)nc2cc(C)ccn12 31.6 µM [activator, single point]
Cc1cc(F)ccc1-c1cc(C(=O)NCc2cccc(C(F)(F)F)c2)[nH]n1 0.891 µM [activator, full curve]
COc1ccc(N(Cc2cc3cccc(C)c3[nH]c2=O)C(=O)c2cccc(Cl)c2)cc1 35.5 µM [activator, partial curve, poor fit]
COC(=O)C[C@H]1c2cc(F)ccc2S(=O)(=O)N1Cc1ccccc1OC 35.5 µM [activator, partial curve]
COc1ccc(C(=O)O/N=C(/c2ccccc2)c2ccncc2)cc1OC 25.1 µM [activator, single point]
C[C@@H](CSc1ccccc1)CN1CC[C@H](NC(=O)OCc2ccccc2)CCC1=O 35.5 µM [activator, single point]
Cc1cccc(C(=O)Nc2ccnc(-c3cccnc3)n2)c1 10 µM [activator, partial curve]
BrC(/C=N/Nc1nc(N2CCOCC2)nc(N2CCOCC2)n1)=C/c1ccccc1 11.2 µM [activator, single point]
O=C(O)c1ccccc1C(=O)Nc1ccc(Oc2ccc3ccccc3c2)cc1 17.8 µM [activator, single point]
Cc1cccc(NC(=O)CSc2ncnc3sc(C)c(C)c23)n1 8.91 µM [activator, partial curve, poor fit]
COc1ccc(Cl)cc1NC(=S)NCCC(c1ccccc1)c1ccccc1 22.4 µM [activator, partial curve, poor fit]
CC(C)(O)C#Cc1ccc(C(=O)N2CCN(c3ccc(Cl)cc3)CC2)cc1 25.1 µM [activator, partial curve]
Cc1onc(-c2ccccc2Cl)c1C(=O)Nc1nnc(-c2cccc([N+](=O)[O-])c2)s1 28.2 µM [activator, partial curve]
COCC(=O)n1nc(-c2ccccc2)nc1NCc1ccc(F)cc1 7.94 µM [activator, partial curve]
Cc1ccccc1NC(=O)COc1coc(CN2CCCc3ccccc32)cc1=O 35.5 µM [activator, partial curve]
COc1ccc(-c2csc(Nc3cccc(C)n3)n2)cc1OC 6.31 µM [activator, partial curve]
CC1CCCCN1C(=O)c1cc(-c2ccc(Br)cc2)on1 (configuration not stated) 3.55 µM [activator, partial curve]
C(=N\Nc1nc2ccccc2s1)/c1cccs1 17.8 µM [activator, single point]
CC(C)NC(=O)c1sc2nc(-c3cccs3)cc(-c3cccs3)c2c1N 7.08 µM [activator, full curve]
CC1CCCC(NC(=O)C2COc3ccccc3O2)C1C (configuration not stated) 15.8 µM [activator, single point]
COc1ccc(N2C(=O)CC(NCC#N)C2=O)cc1 (configuration not stated) 20 µM [activator, single point]
Cc1ccc(-c2nnc(SCC(=O)Nc3ccccc3F)o2)cc1 1.26 µM [activator, partial curve]
CC1=C(C#N)CCC(=O)N1Cc1c(C)cc(C)cc1C 14.1 µM [activator, partial curve]

Potency, active:
O=C(Nc1cccc(-c2nc3ncccc3o2)c1)c1ccccc1 15.8 µM
Cc1onc(C(=O)NN)c1-c1csc(COc2ccc(Cl)cc2)n1 11.2 µM
COc1ccc2nc(N(Cc3cccnc3)C(=O)Cc3ccccc3)sc2c1 31.6 µM
O=C(O)c1ccc(N/N=C/C(Br)=C/c2ccccc2)cc1 11.2 µM
CCOC(=O)N1CCN(C(=O)C[C@@H]2C[C@@]3(C(=O)OCC)CCC=C3N(Cc3ccc(Cl)cc3Cl)C2=O)CC1 22.4 µM
Cc1ccccc1NC(=O)CCCSc1nc2ccccc2s1 12.6 µM
COc1ccc(CCNc2ncnc3c2cnn3-c2cc(Cl)ccc2C)cc1 20 µM

Growth rescue (activation), inactive:
O=C(Nc1ccon1)c1cccc(C(F)(F)F)c1 -14.4%
CC(C)Cn1c(-c2ccc(S(=O)(=O)N3CCOCC3)cc2)csc1=Nc1cc(Cl)ccc1Cl 11.8%
O=C(c1ccc([N+](=O)[O-])cc1)N1CCc2ccccc2C1 -14.7% [at 0.397 µM]
COc1ccc(CCn2c3c(c(=O)[nH]c2=O)C(NC(=O)c2ccc(C(C)(C)C)cc2)(C(F)(F)F)C(=O)N3)cc1OC (configuration not stated) 15.6%
COc1ccc(Cl)cc1NC(=O)C1CSC(c2ccncc2)=N1 (configuration not stated) 7.49%
CC(=O)c1cc(-c2ccc(F)cc2)n(CC(=O)Nc2cc(C)cc(C)c2)c1C 14.7%
O=C(NCCO)c1cc2cc(Cl)cc(Cl)c2oc1=O -2.28%
CCc1cccc(-n2c(=O)c3cccnc3n2CC(=O)Nc2c(C)cc(C)cc2C)c1 21.9%
C[C@@]12C(=O)Nc3cc(F)c(F)cc3C(=O)N1[C@H]1c3ccccc3OC[C@@H]1[C@@H]2c1ccccc1 -13.3%
Nc1nnc(SCc2cccc(C(F)(F)F)c2)s1 6.2%
COc1ccc(S(=O)(=O)N(C)C[C@H]2Oc3ccc(NC(=O)Nc4ccc5c(c4)OCO5)cc3CC(=O)N([C@@H](C)CO)C[C@@H]2C)cc1 10.6%
CC(=O)c1cccc(S(=O)(=O)Nc2ccc3nc(C)sc3c2)c1 19.9%
CCOc1ccc(C(=O)NC(=S)Nc2ccccc2N2CCCCC2)cc1[N+](=O)[O-] 21.7%
CCOCCCN1C(=O)c2ccccc2CC1(C)C(=O)NC1CCCCC1 (configuration not stated) 3.3%
Cc1ccc(NC(=O)c2cccc(NC(=O)CC3SC(N4CCCCC4)=NC3=O)c2)nc1 (configuration not stated) 12.8%
COc1ccccc1CNC(=O)c1cn(C)c2ccc(S(=O)(=O)N(C)C3CCCCC3)cc2c1=O 16%
Cc1[nH]n(-c2ccc(Cl)cc2)c(=O)c1C(=O)c1ccccc1 -91.9%
C#CCOCCOCCOCCNc1nc(N2CCN(C(=O)CCCCCCCCCCNC(=O)[C@@H](CCSC)n3cc(CCO)nn3)CC2)nc(N2CCN(C(=O)CCCCCCCCCCNC(=O)[C@H](CO)n3cc(CCCCCN)nn3)CC2)n1 9.1%
Cc1noc(C)c1NC(=O)Nc1cccc2c1O[C@H](CN(C)C(=O)NC1CCCCC1)[C@@H](C)CN([C@H](C)CO)C2=O 19.4%
CCOC(=O)C1CCN(c2nc3c(S(=O)(=O)c4ccc(C)c(C)c4)nnn3c3ccc(Cl)cc23)CC1 12.6%
CC1=C(C(=O)N2CCN(c3cccc(Cl)c3)CC2)C2(CCCCC2)OC1=O 13.9%
CCCCCCCCN1C(=O)[C@H](CC(=O)NCc2ccccc2)C[C@@]2(C(=O)OCC)CCC=C12 12.8%
CN1CCc2c(sc3c2C(=O)NC(c2ccc(C(C)(C)C)cc2)N3)C1 (configuration not stated) 6.42%
COc1ccc(Cn2c(SCC(=O)N(C)Cc3ccccc3)nc3ccccc32)cc1 0%
CCCCNC(=O)C1(C)CCN1C(=O)c1ccc2sccc2c1 (configuration not stated) 29.3%
CCOc1nc(Nc2ccc(OC)cc2)nc(OCC)n1 22.1%
CC1(C(=O)NCc2ccc(F)cc2)Oc2ccccc2NC1=O (configuration not stated) -14.1%
Cc1ccc(/C=C/c2onc(C)c2S(=O)(=O)N2CCC(C(=O)Nc3ccccc3C(F)(F)F)CC2)cc1 17.3%
COc1ccc(-c2cc(C(F)(F)F)n3nc(-c4ccccc4)cc3n2)cc1OC 0%

Growth rescue (activation), inconclusive:
Cc1cccc(NS(=O)(=O)c2ccc(C)c(C(=O)NCC(c3ccco3)N3CCCCC3)c2)c1 (configuration not stated) 34.3% [activator]
O=c1cc(CN2CCc3ccccc32)nc2sccn12 32.9% [activator]
